# The supplement of paper PMC4967469
# Lines with a small IC50 respond at low doses; fits outside the tested doses are given as limits. AUC sums up the same curve from the lowest dose to the 256-fold higher top dose: 1 means no effect, lower means more sensitive. A top dose marked as inferred was derived from the fitted curves, not read from the paper. For some assays here: An entry number marks a drug with two screens in the source, which often give different values.
# Compound: Cc1cccc(-c2[nH]c(C(C)(C)C)nc2-c2ccc3nccnc3c2)n1 [SB-525334]
# Experiment: Viability of human cancer cell lines after 72 h of drug (GDSC screen)
# Details: top dose 20 µM; top dose inferred
# Procedure: (§1)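 Human cancer cell lines in 384-well plates, medium with 10% serum, drug for 72 h over a 256-fold dose range (nine 2-fold or five 4-fold steps up to the top dose). Adherent lines were fixed and stained with the nucleic acid dye Syto60, suspension lines read with resazurin; signal relative to control wells, capped at 0 and 100%. One two-parameter sigmoid per drug and line, fitted in a mixed model over all curves with the slope shared within a line.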
Cell Line,AUC,IC50 [µM]
"HCC-44 (lung adenocarcinoma, adherent)",0.946,> 20

# Compound: O=C(c1cc(Cc2n[nH]c(=O)c3ccccc23)ccc1F)N1CCN(C(=O)C2CC2)CC1 [Olaparib]
# Experiment: as above
# Details: top dose 5 µM; screen: GDSC drug entry 1017; top dose inferred
# Procedure: as §1
Cell Line,AUC,IC50 [µM]
"CAL-29 (bladder, adherent)",0.959,> 5
"CAL-39 (cervix, adherent)",0.986,> 5
"CAL-51 (breast, adherent)",0.955,> 5
"CAL-72 (osteosarcoma, adherent)",0.97,> 5
"CAL-85-1 (breast, adherent)",0.978,> 5
"CAL-120 (breast, adherent)",0.977,> 5
"CCF-STTG1 (glioma, adherent)",0.988,> 5
"CFPAC-1 (pancreas, adherent)",0.96,> 5
"CHL-1 (melanoma, adherent)",0.975,> 5
"COLO-678 (large intestine, semi-adherent)",0.977,> 5
"COLO-679 (melanoma, adherent)",0.977,> 5
"COLO-680N (oesophagus, adherent)",0.983,> 5
"Ca9-22 (head and neck, adherent)",0.963,> 5
"Ca-Ski (cervix, adherent)",0.971,> 5
"Caov-4 (ovary, adherent)",0.98,> 5
"DAN-G (pancreas, adherent)",0.961,> 5
"DK-MG (glioma, adherent)",0.978,> 5
"Detroit562 (head and neck, adherent)",0.965,> 5

Cell Line,AUC,IC50 [µM]
"EBC-1 (lung squamous cell carcinoma, adherent)",0.958,> 5
"ECC10 (stomach, suspension)",0.967,> 5
"EFO-21 (ovary, adherent)",0.98,> 5
"EFO-27 (ovary, adherent)",0.954,> 5
"EGI-1 (biliary tract, adherent)",0.964,> 5
"FU97 (stomach, adherent)",0.947,> 5
"FU-OV-1 (ovary, adherent)",0.973,> 5
"G-292 Clone A141B1 (osteosarcoma, adherent)",0.95,> 5
"G-361 (melanoma, adherent)",0.988,> 5
"G-402 (soft tissue, adherent)",0.915,> 5
"GMS-10 (glioma, adherent)",0.988,> 5
"H4 (glioma, adherent)",0.863,4.25
"H2373 (mesothelioma, adherent)",0.981,> 5
"H3255 (lung adenocarcinoma, adherent)",0.984,> 5
"HCC1143 (breast, adherent)",0.971,> 5
"HCC1500 (breast, adherent)",0.964,> 5
"HCC-44 (lung adenocarcinoma, adherent)",0.927,> 5

# Same assay, conditions: top dose 10 µM; screen: GDSC drug entry 1495
Cell Line,AUC,IC50 [µM]
"CAL-29 (bladder, adherent)",0.912,> 10
"CAL-39 (cervix, adherent)",0.984,> 10
"CAL-51 (breast, adherent)",0.792,3.87
"CAL-72 (osteosarcoma, adherent)",0.977,> 10
"CAL-85-1 (breast, adherent)",0.909,> 10
"CAL-120 (breast, adherent)",0.827,8.61
"CCF-STTG1 (glioma, adherent)",0.987,> 10
"CFPAC-1 (pancreas, adherent)",0.939,> 10
"CHL-1 (melanoma, adherent)",0.92,> 10
"COLO-678 (large intestine, semi-adherent)",0.966,> 10
"COLO-679 (melanoma, adherent)",0.967,> 10
"COLO-680N (oesophagus, adherent)",0.96,> 10
"Ca9-22 (head and neck, adherent)",0.922,> 10
"Ca-Ski (cervix, adherent)",0.907,> 10
"Caov-4 (ovary, adherent)",0.929,> 10
"DK-MG (glioma, adherent)",0.942,> 10
"Detroit562 (head and neck, adherent)",0.971,> 10

Cell Line,AUC,IC50 [µM]
"EBC-1 (lung squamous cell carcinoma, adherent)",0.884,> 10
"ECC10 (stomach, suspension)",0.95,> 10
"EFO-21 (ovary, adherent)",0.88,> 10
"EFO-27 (ovary, adherent)",0.905,> 10
"EGI-1 (biliary tract, adherent)",0.927,> 10
"FU97 (stomach, adherent)",0.919,> 10
"FU-OV-1 (ovary, adherent)",0.965,> 10
"G-292 Clone A141B1 (osteosarcoma, adherent)",0.938,> 10
"G-361 (melanoma, adherent)",0.947,> 10
"G-402 (soft tissue, adherent)",0.861,> 10
"H4 (glioma, adherent)",0.846,7.15
"H2373 (mesothelioma, adherent)",0.895,> 10
"H3255 (lung adenocarcinoma, adherent)",0.932,> 10
"HCC1143 (breast, adherent)",0.972,> 10
"HCC1500 (breast, adherent)",0.987,> 10
"HCC-44 (lung adenocarcinoma, adherent)",0.891,> 10

# Compound: Cc1ccc(-n2nc(C(C)(C)C)cc2NC(=O)Nc2ccc(OCCN3CCOCC3)c3ccccc23)cc1 [BIRB 0796]
# Experiment: as above
# Details: top dose 10 µM; top dose inferred
# Procedure: as §1
Cell Line,AUC,IC50 [µM]
"CAL-29 (bladder, adherent)",0.954,> 10
"CAL-39 (cervix, adherent)",0.985,> 10
"CAL-51 (breast, adherent)",0.991,> 10
"CAL-72 (osteosarcoma, adherent)",0.978,> 10
"CAL-85-1 (breast, adherent)",0.967,> 10
"CAL-120 (breast, adherent)",0.968,> 10
"CCF-STTG1 (glioma, adherent)",0.98,> 10
"CFPAC-1 (pancreas, adherent)",0.949,> 10
"CHL-1 (melanoma, adherent)",0.982,> 10
"COLO-678 (large intestine, semi-adherent)",0.984,> 10
"COLO-679 (melanoma, adherent)",0.97,> 10
"COLO-680N (oesophagus, adherent)",0.984,> 10
"Ca9-22 (head and neck, adherent)",0.97,> 10
"Ca-Ski (cervix, adherent)",0.89,> 10
"Caov-4 (ovary, adherent)",0.914,> 10
"DAN-G (pancreas, adherent)",0.966,> 10
"DK-MG (glioma, adherent)",0.977,> 10
"Detroit562 (head and neck, adherent)",0.967,> 10

Cell Line,AUC,IC50 [µM]
"EBC-1 (lung squamous cell carcinoma, adherent)",0.946,> 10
"ECC10 (stomach, suspension)",0.983,> 10
"EFO-21 (ovary, adherent)",0.951,> 10
"EFO-27 (ovary, adherent)",0.955,> 10
"EGI-1 (biliary tract, adherent)",0.979,> 10
"FU97 (stomach, adherent)",0.983,> 10
"FU-OV-1 (ovary, adherent)",0.981,> 10
"G-292 Clone A141B1 (osteosarcoma, adherent)",0.868,> 10
"G-361 (melanoma, adherent)",0.975,> 10
"G-402 (soft tissue, adherent)",0.88,> 10
"GMS-10 (glioma, adherent)",0.983,> 10
"H4 (glioma, adherent)",0.981,> 10
"H2373 (mesothelioma, adherent)",0.931,> 10
"H3255 (lung adenocarcinoma, adherent)",0.968,> 10
"HCC1143 (breast, adherent)",0.98,> 10
"HCC1500 (breast, adherent)",0.988,> 10
"HCC-44 (lung adenocarcinoma, adherent)",0.974,> 10

# Compound: Cc1cc(N2CCOCC2)cc2[nH]c(-c3c(NC[C@@H](O)c4cccc(Cl)c4)cc[nH]c3=O)nc12 [BMS-536924]
# Experiment: as above
# Details: top dose 4 µM; screen: GDSC drug entry 1091; top dose inferred
# Procedure: as §1
Cell Line,AUC,IC50 [µM]
"CAL-29 (bladder, adherent)",0.889,> 4
"CAL-39 (cervix, adherent)",0.919,> 4
"CAL-51 (breast, adherent)",0.92,> 4
"CAL-72 (osteosarcoma, adherent)",0.933,> 4
"CAL-85-1 (breast, adherent)",0.9,> 4
"CAL-120 (breast, adherent)",0.837,3.85
"CCF-STTG1 (glioma, adherent)",0.905,> 4
"CFPAC-1 (pancreas, adherent)",0.863,> 4
"CHL-1 (melanoma, adherent)",0.899,> 4
"COLO-678 (large intestine, semi-adherent)",0.92,> 4
"COLO-679 (melanoma, adherent)",0.887,> 4
"COLO-680N (oesophagus, adherent)",0.985,> 4
"Ca9-22 (head and neck, adherent)",0.897,> 4
"Ca-Ski (cervix, adherent)",0.923,> 4
"Caov-4 (ovary, adherent)",0.946,> 4
"DAN-G (pancreas, adherent)",0.949,> 4
"DK-MG (glioma, adherent)",0.947,> 4
"Detroit562 (head and neck, adherent)",0.934,> 4

Cell Line,AUC,IC50 [µM]
"EBC-1 (lung squamous cell carcinoma, adherent)",0.975,> 4
"ECC10 (stomach, suspension)",0.751,1.37
"EFO-21 (ovary, adherent)",0.926,> 4
"EFO-27 (ovary, adherent)",0.587,0.46
"EGI-1 (biliary tract, adherent)",0.915,> 4
"FU97 (stomach, adherent)",0.867,3.78
"FU-OV-1 (ovary, adherent)",0.843,> 4
"G-292 Clone A141B1 (osteosarcoma, adherent)",0.788,3.08
"G-361 (melanoma, adherent)",0.978,> 4
"G-402 (soft tissue, adherent)",0.961,> 4
"GMS-10 (glioma, adherent)",0.923,> 4
"H4 (glioma, adherent)",0.893,> 4
"H2373 (mesothelioma, adherent)",0.889,> 4
"H3255 (lung adenocarcinoma, adherent)",0.882,> 4
"HCC1143 (breast, adherent)",0.784,2.47
"HCC1500 (breast, adherent)",0.967,> 4
"HCC-44 (lung adenocarcinoma, adherent)",0.909,> 4
